Data as given in PubChem BioAssay AID686971 (National Center for Advancing Translational Sciences (NCATS), 2013).
Several values for one entry are separate records, joined by “and”; a condition that tells them apart may be missing. Identical values can stand only once. About 7,500 (2.1%) of roughly 360,000 compounds were called active. The inconclusive results got no clear call from the source; some entries with a clear call stand among them for comparison. Calls follow the shape of the dose curve; as a rule, active = well fitted cell-killing curve with a large enough effect; inconclusive = small, poorly fitted or top-dose-only effect, or effect the other way, or another doubt; inactive = no such curve, though single readings can be large or run the other way. Where the call is inconclusive, the potency comes from a doubtful curve fit.

Assay: qHTS for induction of synthetic lethality in tumor cells producing 2HG: qHTS for the HT-1080-IDH1KD cell line;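 as to activity, negative = toxicity: 0% = DMSO wells and -100% = cell-free medium wells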
Conditions: HT-1080 IDH1 knockdown viability, ATP luminescence, 48 h; activity, negative = toxicity: at 46.1 µM (top of the series) unless noted
How it was run: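 Viability of IDH1-knockdown HT-1080 fibrosarcoma cells was assessed by CellTiter-Glo after 48 h at 37 °C with titrated compound; concentration-effect curves were classified by fit quality and response size.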
Potency is read from the fitted curve at half-maximal effect; tags tell the direction and shape of the fitted curve.

SMILES | activity, negative = toxicity | Potency
CCOC(=O)C1(C)CCN1C(=O)c1ccccc1Br (stereo unspecified) | inactive: 20.4% | 
N#Cc1ccc(Nc2nc(-c3ccc(O)cc3O)cs2)cc1C(F)(F)F |  | inconclusive: 18.4 µM [cytotoxic, single point]
O=C(O)c1ccc(NC(=S)NC(=O)c2ccc(-c3ccccc3)cc2)cc1 |  | inconclusive: 29.1 µM [cytotoxic, single point]
Cc1ccc(C(O)(C(=O)NNc2ccc3ccccc3n2)c2ccc(C)cc2)cc1 |  | inconclusive: 11.6 µM [cytotoxic, partial curve] and inconclusive: 14.6 µM [cytotoxic, partial curve]
Cc1ccc(Cc2cnc(NC(=O)/C(C#N)=C/c3ccc(-c4ccccc4[N+](=O)[O-])o3)s2)cc1 |  | inconclusive: 25.9 µM [cytotoxic, partial curve, poor fit]
Cc1cccc(NC(=O)c2sc3nc(-c4ccccc4)cn3c2C)n1 | inactive: -17.5% | 
COc1cccc(NC(=O)N2CCCC2C(=O)Nc2ccc3c(c2)OCCO3)c1 (stereo unspecified) | inactive: 8.11% | 
Clc1ccc(Nc2nc(N3CCOCC3)nc(N3CCOCC3)n2)cc1Cl | inactive: -27.2% | 
O=C(CSc1ncn[nH]1)Nc1ccccc1Sc1ccccc1 |  | inconclusive: 35.5 µM [cytotoxic, single point]
CCOC(=O)c1c(NC(=O)/C=C/C(=O)O)sc(C)c1-c1ccc(Cl)cc1 |  | active: 23.1 µM
COc1ccc(-n2cc(C(=O)c3ccccc3O)cn2)cc1 |  | inconclusive: 16.4 µM [cytotoxic, single point]
OCCC1CN(Cc2ccccc2-c2ccco2)CCN1Cc1ccccc1 (stereo unspecified) | inactive: -0.891% | 
CC(C)N(CCC(=O)c1ccc2ccccc2c1)Cc1ccccc1 |  | active: 14.6 µM
CCOc1ccccc1C1C2=C(COC2=O)Nc2cc3c(cc21)OCO3 (stereo unspecified) |  | active: 0.651 µM
COCCNC(=S)N=Nc1c(O)[nH]c2ccc([N+](=O)[O-])cc12 |  | active: 25.9 µM
CCOc1ccccc1NC(=O)CCCc1ccc(OC)c(C)c1 |  | inconclusive: 29.1 µM [cytotoxic, single point]
COc1cccc(CN(C)CC2CCCN(CCc3ccccc3C)C2)c1 (stereo unspecified) |  | inconclusive: 16.4 µM [cytotoxic, partial curve]
CNc1nc(N)c([N+](=O)[O-])c(N2CCCCCC2)n1 | inactive: -2.17% | 
Fc1ccc(Cn2nnnc2C(c2cccs2)N2CCN(C3CCCCC3)CC2)cc1 (stereo unspecified) | inactive: -1.28% | 
CC12C=CC(=O)C=C1C(F)CC1C3CCC(O)(C(=O)CO)C3(C)CC(O)C12F (stereo unspecified) |  | inconclusive: 0.184 µM [rising, full curve]
Cc1nn(Cc2ccc(C(=O)Nc3nccs3)cc2)c(C)c1Cl | inactive: -3.46% | 
Cc1ccc(NC(=S)Nc2ccc(C(C)C)cc2)cc1S(=O)(=O)N1CCCCCC1 |  | active: 20.6 µM
CS(=O)(=O)Cc1ccc(C(=O)Nc2cccc(-c3nc4ccccc4[nH]3)c2)cc1 |  | inconclusive: 11.6 µM [cytotoxic, partial curve]
NS(=O)(=O)c1cccc(NC(=O)Cn2cc(C(F)(F)F)cc(Cl)c2=O)c1 | inactive: 0.548% | 

SMILES | activity, negative = toxicity | Potency
CC(NC(=O)c1ccc(F)cc1)c1nc2ccccc2n1Cc1ccccc1F (stereo unspecified) |  | inconclusive: 35.5 µM [cytotoxic, single point]
COc1ncccc1-c1cnc2cccnn12 |  | inconclusive: 18.4 µM [rising, single point]
CCCCSc1nc2sc3c(c2c(=O)n1-c1ccc(C)cc1)CCN(C)C3 |  | inconclusive: 29.1 µM [cytotoxic, single point]
COc1ccccc1N1CCN(Cc2cc3c(cc2Br)OCCO3)CC1 |  | inconclusive: 18.4 µM [cytotoxic, single point]
Cc1cc(C(=O)NC2CCCc3ccccc32)ccc1[N+](=O)[O-] (stereo unspecified) |  | inconclusive: 23.1 µM [cytotoxic, single point]
C=CCNC(=S)N/N=C(\C)c1ccccn1 |  | inconclusive: 0.259 µM [cytotoxic, full curve, poor fit]
Cc1c(NC(=O)c2ccc([N+](=O)[O-])o2)cccc1-c1nc2ncccc2o1 |  | inconclusive: 29.1 µM [cytotoxic, single point]
O=C(NC(NC(=S)Nc1ccc(Cl)cc1Cl)C(Cl)(Cl)Cl)c1cccc([N+](=O)[O-])c1 (stereo unspecified) |  | inconclusive: 18.4 µM [cytotoxic, single point]
Cc1nnc(NC(=O)CCS(=O)(=O)c2ccccc2)s1 |  | inconclusive: 10.3 µM [cytotoxic, partial curve]
Oc1ccc(Nc2nc3ccccc3nc2Nc2ccc(O)cc2)cc1 |  | active: 11.6 µM
Oc1c(N=Nc2ccccn2)ccc2ccccc12 |  | active: 2.31 µM
CC(C)C(=O)N1CCN(c2ccc(NC(=O)c3ccc4c(c3)OCCO4)cc2Cl)CC1 |  | inconclusive: 22.4 µM [cytotoxic, single point]
CC(C)Oc1ccc(C(CCN)C2CCCCC2)cc1 (stereo unspecified) |  | active: 14.6 µM
C=CCn1c(SC)nnc1-c1ccc2ncccc2c1 |  | inconclusive: 0.411 µM [rising, partial curve, poor fit]
CCCCCCC=C1CCC(CN2CCCC2)C1=O (stereo unspecified) |  | inconclusive: 29.1 µM [cytotoxic, single point]
O=C(Nc1ccccc1)Nc1cc(Cl)cc(Cl)c1 |  | active: 14.6 µM
O=C(c1ccco1)N(CCC(c1ccccc1)c1ccco1)Cc1ccc(F)cc1 (stereo unspecified) |  | inconclusive: 25.1 µM [cytotoxic, single point]
N#Cc1c(-c2cccs2)cc(-c2ccccn2)nc1N |  | inconclusive: 18.4 µM [cytotoxic, single point]
CC(C)C(=O)Nc1nnc(SCC(=O)Nc2ccc3c(c2)OCCO3)s1 | inactive: 11.8% | 
CCOC(=O)c1sc(NC(=O)CSc2n[nH]c(-c3ccccc3)n2)c(C#N)c1C |  | inconclusive: 10.3 µM [cytotoxic, partial curve]
Cc1c(NC(=O)c2cc(C(C)C)on2)c(=O)n(-c2ccccc2)n1C |  | inconclusive: 6.31 µM [cytotoxic, full curve, poor fit]
CC1(C)CC(=O)C2(CC3=C(CC(C)(C)CC3=O)O2)C(=O)C1 | inactive: 16.5% | 
Cn1cc(CN2CCCC(CO)(Cc3ccccc3)C2)c2ccccc21 (stereo unspecified) |  | inconclusive: 20.6 µM [cytotoxic, single point]
Oc1cccc2ccc(/C=C/c3c(F)cccc3Cl)nc12 |  | inconclusive: 9.2 µM [cytotoxic, partial curve]

SMILES | activity, negative = toxicity | Potency
COc1ccc(CNC(=O)COC(=O)C(CCSC)NC(=O)c2ccco2)cc1OC (stereo unspecified) | inactive: -0.148% | 
N#CC1=C(N)NC(=S)C(C(N)=O)C1c1ccc(Cl)cc1Cl (stereo unspecified) | inconclusive: -33.5% [cytotoxic] | 
O=C(CCl)Nc1cccc(S(=O)(=O)NC2=NCCC2)c1 |  | active: 16.4 µM
CC(NC(=O)Nc1ccc(Cl)c(Cl)c1)C(c1ccccc1)N1CCOCC1 (stereo unspecified) |  | inconclusive: 25.9 µM [cytotoxic, single point]
CCn1c2ccccc2c2cc(CN3CCN(Cc4cc(OC)ccc4O)CC3)ccc21 |  | inconclusive: 29.1 µM [cytotoxic, single point]
COc1ccc(-n2c(=O)c3c4c(sc3n(CC(=O)Nc3cc(C)[nH]n3)c2=O)CCCC4)c(OC)c1 | inconclusive: -30.1% [cytotoxic] | 
COc1cccc(N2CC(C(=O)Nc3nnc(SCCC4OCCO4)s3)CC2=O)c1 (stereo unspecified) | inactive: 17.1% | 
O=C(Nc1ccccc1F)c1cc2c(s1)-c1ccccc1S(=O)(=O)C2 |  | inconclusive: 18.4 µM [cytotoxic, single point]
COc1ccc(CC(=O)Nc2cccc(-c3ccc4nncn4n3)c2)cc1OC |  | inconclusive: 14.6 µM [cytotoxic, partial curve]
CCCCn1c(N)c(N(CCOC)C(=O)COC(=O)COc2cc(C)c(Cl)cc2C(C)C)c(=O)[nH]c1=O |  | inconclusive: 20.6 µM [cytotoxic, single point]
COc1ccc(OC)c(Nc2nc(NCc3ccco3)c3ccccc3n2)c1 |  | inconclusive: 16.4 µM [cytotoxic, single point]
N#C/C(=C(/O)COc1cccc2ccccc12)c1nc2ccccc2[nH]1 |  | inconclusive: 18.4 µM [cytotoxic, single point]
CCN(C1CCCCC1)S(=O)(=O)c1ccc(S(=O)(=O)NCc2ccncc2)cc1 |  | inconclusive: 35.5 µM [cytotoxic, single point]
Cc1cc(S(=O)(=O)c2ccc(Cl)cc2)nc(S(=O)(=O)c2ccc(Cl)cc2)c1C#N |  | active: 6.51 µM
CCOc1cc(/C=C2/C(=N)N3C=CSC3=NC2=O)ccc1OCCCOc1ccccc1C |  | inconclusive: 25.9 µM [cytotoxic, single point]
CCN(CCNC(=O)Nc1ccc(Cl)cc1)c1ccccc1 |  | inconclusive: 18.4 µM [cytotoxic, single point]
COc1ccc(N=C2NN=C(c3c(C)[nH]c4ccccc34)CS2)cc1 |  | inconclusive: 18.4 µM [cytotoxic, partial curve]
CCCCc1c(-c2ccccc2OC)ncn1Cc1ccc(Cl)cc1 |  | active: 18.4 µM
O=c1[nH]c(=O)n(Cc2ccco2)c2c1C(C(F)(F)F)(C(F)(F)F)N=C(c1ccc(F)cc1)N2 |  | inconclusive: 3.55 µM [cytotoxic, full curve]
COc1ccc(-n2ncc3c(SCC(=O)N4CCN(c5ccccc5OC)CC4)ncnc32)cc1 | inactive: -0.822% | 
COc1ccc(CCN2C(=O)C3C4C=CC(C5CC45)C3C2=O)cc1OC (stereo unspecified) | inactive: 3.76% | 
O=c1c2ccccc2sn1-c1ccc(Cl)cc1Cl |  | inconclusive: 18.4 µM [cytotoxic, single point]
Oc1ccc(Cl)cc1/C=C/c1ccc2cccc(O)c2n1 |  | active: 20.6 µM
